Experimental data published in PubChem BioAssay AID1745853 (National Center for Advancing Translational Sciences (NCATS), 2022).
“And” between values parts separate entries of the source, which are not always exact repeats. Equal values may be shown once. The list shows a part of the results. These are further read-outs of the screen, such as a control signal, another cell line or another target. No call is given for them.

What was measured:
Assay in all cases: Primary Screen for Target Class Profiling of Small Molecule Inhibitors of Methyltransferases
[1] = target: Glycine N-methyltransferase (Homo sapiens) (UniProt Q14749); details: purified enzyme, MTase-Glo SAH luminescence; measured here: GNMT inhibition; at 40 µM; stronger effect = lower value
Summary of the method: (§1)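 Each enzyme was assayed with SAM and its substrate. SAH formation detected by MTase-Glo luminescence; single-point 40 uM screen[…].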

[2] = target: Guanidinoacetate N-methyltransferase (Homo sapiens) (UniProt Q14353); details: purified enzyme, MTase-Glo SAH luminescence; measured here: GAMT inhibition; at 40 µM; stronger effect = lower value
Summary of the method: as §1

[3] = target: Histamine N-methyltransferase (Homo sapiens) (UniProt P50135); details: purified enzyme, MTase-Glo SAH luminescence; measured here: HNMT inhibition; at 40 µM; stronger effect = lower value
Summary of the method: as §1

[4] = target: Nicotinamide N-methyltransferase (Homo sapiens) (UniProt P40261); details: purified enzyme, MTase-Glo SAH luminescence; measured here: NNMT inhibition; at 40 µM; stronger effect = lower value
Summary of the method: as §1

[5] = target: Phenylethanolamine N-methyltransferase (Homo sapiens) (UniProt P11086); details: purified enzyme, MTase-Glo SAH luminescence; measured here: PNMT inhibition; at 40 µM; stronger effect = lower value
Summary of the method: as §1
% is set by controls: 0 for no effect and ±100 for the full control effect.

Structure (SMILES) | activity change, negative = inhibition [1] | activity change, negative = inhibition [2] | activity change, negative = inhibition [3] | activity change, negative = inhibition [4] | activity change, negative = inhibition [5]
Cc1cccc(NC(=O)N2Cc3ccccc3-n3cccc3C2c2cccc(Cl)c2)c1C (stereo not drawn) | 4.69% | 0.482% | -0.586% | 3.01% | 2.71%
Cc1cc(C)cc(NC(=O)N2Cc3ccccc3-n3cccc3C2c2ccc(Cl)cc2)c1 (stereo not drawn) | 0.387% | 0% | 3.64% | 4.33% | 3.65%
CCOc1ccc(C2c3cccn3-c3ccccc3CN2C(=O)Nc2ccc(F)cc2)cc1 (stereo not drawn) | 0.282% | 0% | 7% | 6.37% | 5.74%
CC(=O)c1cccc(NC(=O)NC[C@H]2C[C@@H]3CCN2C[C@@H]3c2cc(-c3ccc(F)cc3)nc(C)n2)c1 | -73.6% | -9.32% | -19.9% | -39.5% | -12%
CCOc1ccc(NC(=O)N2Cc3ccccc3-n3cccc3C2c2ccc(N(C)C)cc2)cc1 (stereo not drawn) | 12.2% | 0% | 8% | 3.71% | 5.1%
C=C1C[C@]2(O)[C@@]3(C)CCC(=O)C(C)(C)C3=C(O)C(=O)[C@@]2(C)[C@@H]2C(=O)O[C@@](C)(C(=O)OC)C(=O)[C@@]12C | 1.76% | -2.7% | 7.56% | -13.8% | 0.559%
O=C1NC[C@H]2CN(C3CCOCC3)CCN12 | -3.74% | -5.63% | -1.23% | -9.16% | -5.7%
COCCCNC(=O)N1Cc2ccccc2-n2cccc2C1c1cccc(Cl)c1 (stereo not drawn) | 12.3% | 4.33% | 5.9% | 1.97% | 9.83%
O=C1C=CC(=O)C=C1 | -0.763% | 13.8% | 3.41% | -2.21% | 6.01%
COc1ccc(C2c3cccn3-c3ccccc3CN2C(=O)NC2CCCC2)cc1OC (stereo not drawn) | 2.11% | 0% | -4.3% | -9.91% | -0.566%
CCc1ccc(C2c3cccn3-c3ccccc3CN2C(=O)Nc2ccccc2F)cc1 (stereo not drawn) | 11.8% | 0% | 5.76% | -0.222% | 5.8%
CCC1c2cccn2-c2ccccc2CN1C(=O)Nc1cccc(OC)c1 (stereo not drawn) | 2.92% | 0% | 6.13% | -0.673% | 7.39%
CSCC(=O)Nc1ccc(=O)n2c1[C@@H]1C[C@@H](CN(C(=O)NC3CCCCC3)C1)C2 | -6.82% | -8.03% | -1.96% | -11.3% | -6.56%
O=C(Nc1ccc(=O)n2c1[C@@H]1C[C@@H](CN(S(=O)(=O)c3ccccc3)C1)C2)c1ccco1 | -4.5% | -2.65% | -1.49% | -3.96% | -2.18%
NN=C(N)N | 3.51% and 3.31% | 7.67% and -11% | -1.11% and -11.8% | -2.25% and -8.77% | 7.51% and -0.705%
Cc1sc2c(c1C)C(c1ccc(Cl)cc1)=NC(CC(=O)Nc1ccc(O)cc1)c1nnc(C)n1-2 (stereo not drawn) | -11.3% and -6.45% | – | 3.43% and 5.97% | -23% | 21.1%

Structure (SMILES) | activity change, negative = inhibition [1] | activity change, negative = inhibition [2] | activity change, negative = inhibition [3] | activity change, negative = inhibition [4] | activity change, negative = inhibition [5]
CCOc1ccc(C2c3cccn3-c3ccccc3CN2C(=O)NC2CCCC2)cc1 (stereo not drawn) | -2.26% | 3.29% | 2.58% | -4.91% | 1.98%
CCOc1ccc(NC(=O)N2Cc3ccccc3-n3cccc3C2c2ccc(Cl)cc2)cc1 (stereo not drawn) | -1.21% | 4% | 5.74% | 3.68% | 0.733%
CCOc1ccccc1NC(=O)N1Cc2ccccc2-n2cccc2C1c1ccc(OC)cc1 (stereo not drawn) | 11.6% | 0% | 5.41% | -1.52% | 5.04%
Cc1ccc(NC(=O)N2Cc3ccccc3-n3cccc3C2c2ccccc2)cc1 (stereo not drawn) | 8.12% | -0.265% | 0.377% | -8.52% | -0.991%
NC1CCc2cc(O)c(O)cc2C1 (stereo not drawn) | -45% | 13.8% | -5.7% | -7.11% | -5.03%
CCC1c2cccn2-c2ccccc2CN1C(=O)Nc1ccccc1Br (stereo not drawn) | -9.64% | 0.096% | -4.9% | -6.37% | 1.12%
O=C(Nc1ccc2n(c1=O)C[C@H]1C[C@@H]2CN(CC2CCCCC2)C1)C1CCCCC1 | -14.8% | -7.54% | -13.3% | -19.3% | -15.2%
CN1C(=O)[C@H]2CN(Cc3ccsc3)C[C@H]2C1=O | -2.39% | -1.82% | -0.953% | -5.92% | -0.156%
CC(=O)NC[C@H]1C[C@@H]2CCN1C[C@@H]2c1cc(-c2ccc3ccccc3c2)nn1C | -9.15% | -1.77% | -65.9% | -8.7% | -22.3%
COc1ccccc1NC(=O)N1Cc2ccccc2-n2cccc2C1c1ccc(C)cc1 (stereo not drawn) | 4.27% | 4.27% | -2.96% | -4.68% | 1.03%
Cc1ccc(NC(=O)N2Cc3ccccc3-n3cccc3C2c2ccccc2Cl)cc1 (stereo not drawn) | 5.13% | 5.6% | -3.37% | -1.83% | 2.39%
CCOc1ccc(NC(=O)N2Cc3ccccc3-n3cccc3C2c2cc(F)cc(F)c2)cc1 (stereo not drawn) | 5.49% | 0% | 5.16% | 4.28% | 2.48%
COC(=O)C1(C)CCC(O)C2(C)c3cc(O)c(C(C)C)cc3C(O)C(OC(C)=O)C12 (stereo not drawn) | 2.8% | 4.17% | 10.2% | -8.85% | -0.674%
Cc1sc2c(c1C)C(c1ccc(Cl)cc1)=NC(CC(N)=O)c1nnc(C)n1-2 (stereo not drawn) | -20.3% | – | -3.02% | -21.9% | 18.5%
Cc1cnc(N2CC3CCC(C2)N3CC(F)(F)F)c([N+](=O)[O-])c1 | -7.42% | -9.79% | -4.84% | -19.2% | -11.6%
